Results on one molecule are retold here after patent US20240327502A1.

Substrate in test [1]: F protein of hMPV A virus (human metapneumovirus subtype A)
Description: cell-based or functional assay.

Substrate in test [2]: F protein of hMPV B virus (human metapneumovirus subtype B)
Description: cell-based or functional assay.

B1: M4B02 (antibody, V domains shown)
VH: QLQLQESGPSETLSLTCTVSGGSISSSSYYWGWIRQPPGKGLEWIGSIYYSGSTYYNPSLKSRVTISVDTSKNQFPLKLSSVTATDTAVYYCARLGVGLYEAFDIWGQGTMVTVSS
VL: [about 100 residues not spelt out]FGQGTRLEIK
In the case of B1, the PRNT IC50 in test [1] and in test [2] was more than 10 µg/mL throughout.
